# In paper PMC12820563, “FoxP3 forms a head-to-head dimer in vivo and stabilizes its multimerization on adjacent microsatellites”:
# The list shows a part of the results.
# Target: T1, MBP-FoxP1dN (Mus musculus, UniProt P58462 326-579)
# T1 sequence: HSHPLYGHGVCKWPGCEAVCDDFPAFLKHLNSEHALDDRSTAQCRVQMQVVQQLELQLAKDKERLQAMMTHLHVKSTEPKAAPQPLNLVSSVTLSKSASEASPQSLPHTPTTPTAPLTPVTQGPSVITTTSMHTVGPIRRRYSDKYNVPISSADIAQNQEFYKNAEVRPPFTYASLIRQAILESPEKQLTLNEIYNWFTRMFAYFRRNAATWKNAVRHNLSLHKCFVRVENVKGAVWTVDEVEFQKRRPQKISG
# Experiment: PD-seq (MBP pull-down with sequencing); 20 mM Tris-HCl pH 7.5, 100 mM NaCl, 1.5 mM MgCl2, 0.4 uM protein, 0.1 uM dsDNA library, 30 min, room temperature, amylose pull-down; high values mean tight binding
# Conditions: protein: recombinant; tags: His6-MBP; chain copies: 2; dsDNA, one strand shown
# Procedure, shortened: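 Binding is reads-per-million enrichment of pull-down over input, with replicates pooled. It comes from 30 min room-temperature incubation in Tris pH 7.5 buffer with NaCl and MgCl2 of 0.4 µM His6-MBP-tagged, N-terminally truncated mouse FoxP3 or FoxP1 fragment from E. coli with 0.1 µM Klenow-filled degenerate double-stranded DNA library, followed by amylose resin capture, three washes and Illumina sequencing of the released DNA.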
row,Sequence,binding signal
1,GATGATTGTTCTCCCAGCTGATGAATTTTTGGCATCGAGTAAACAAATTTTCCTAATCTTTCTGTTCAAGCGCCATCTAC,1.09 RPM ratio (pull-down/input)
2,GATGATTGTTCTCCCAGCTGATGAATTCAAGCTCTCGAGTAAACAAATTTTCCTAATCTTTCTGTTCAAGCGCCATCTAC,0.854 RPM ratio (pull-down/input)
3,GATGATTGTTCTCCCAGCTGATGAATTTCATTGGTCGAGTAAACAAATTTTCCTAATCTTTCTGTTCAAGCGCCATCTAC,0.948 RPM ratio (pull-down/input)
4,GATGATTGTTCTCCCAGCTGATGAATTACTATGGTCGAGTAAACAAATTTTCCTAATCTTTCTGTTCAAGCGCCATCTAC,0.956 RPM ratio (pull-down/input)
5,GATGATTGTTCTCCCAGCTGATGAATTTGCAGACTCGAGTAAACAAATTTTCCTAATCTTTCTGTTCAAGCGCCATCTAC,0.892 RPM ratio (pull-down/input)
6,GATGATTGTTCTCCCAGCTGATGAATTAGTTGGATCGAGTAAACAAATTTTCCTAATCTTTCTGTTCAAGCGCCATCTAC,0.875 RPM ratio (pull-down/input)
7,GATGATTGTTCTCCCAGCTGATGAATTACATTAGTCGAGTAAACAAATTTTCCTAATCTTTCTGTTCAAGCGCCATCTAC,1.25 RPM ratio (pull-down/input)
8,GATGATTGTTCTCCCAGCTGATGAATTGAGGAATTCGAGTAAACAAATTTTCCTAATCTTTCTGTTCAAGCGCCATCTAC,0.824 RPM ratio (pull-down/input)
9,GATGATTGTTCTCCCAGCTGATGAATTCACGCTGTCGAGTAAACAAATTTTCCTAATCTTTCTGTTCAAGCGCCATCTAC,0.895 RPM ratio (pull-down/input)
10,GATGATTGTTCTCCCAGCTGATGAATTACACGCATCGAGTAAACAAATTTTCCTAATCTTTCTGTTCAAGCGCCATCTAC,1.3 RPM ratio (pull-down/input)
11,GATGATTGTTCTCCCAGCTGATGAATTGATTAGATCGAGTAAACAAATTTTCCTAATCTTTCTGTTCAAGCGCCATCTAC,1.06 RPM ratio (pull-down/input)
12,GATGATTGTTCTCCCAGCTGATGAATTGCGCACTTCGAGTAAACAAATTTTCCTAATCTTTCTGTTCAAGCGCCATCTAC,1.16 RPM ratio (pull-down/input)
13,GATGATTGTTCTCCCAGCTGATGAATTACAAGCCTCGAGTAAACAAATTTTCCTAATCTTTCTGTTCAAGCGCCATCTAC,1.17 RPM ratio (pull-down/input)
14,GATGATTGTTCTCCCAGCTGATGAATTTCGATAGTCGAGTAAACAAATTTTCCTAATCTTTCTGTTCAAGCGCCATCTAC,0.833 RPM ratio (pull-down/input)
15,GATGATTGTTCTCCCAGCTGATGAATTAAGCAGATCGAGTAAACAAATTTTCCTAATCTTTCTGTTCAAGCGCCATCTAC,0.994 RPM ratio (pull-down/input)
16,GATGATTGTTCTCCCAGCTGATGAATTAATAAGCTCGAGTAAACAAATTTTCCTAATCTTTCTGTTCAAGCGCCATCTAC,1.03 RPM ratio (pull-down/input)
17,GATGATTGTTCTCCCAGCTGATGAATTTAGGTGCTCGAGTAAACAAATTTTCCTAATCTTTCTGTTCAAGCGCCATCTAC,0.878 RPM ratio (pull-down/input)
18,GATGATTGTTCTCCCAGCTGATGAATTCATCCGCTCGAGTAAACAAATTTTCCTAATCTTTCTGTTCAAGCGCCATCTAC,0.781 RPM ratio (pull-down/input)
